Results: paper PMC6212790
The other results are listed elsewhere or left out. At the low end of the ranking the order means little.

Target: T1, GST-Rok (full length) (UniProt O34857)
T1 sequence: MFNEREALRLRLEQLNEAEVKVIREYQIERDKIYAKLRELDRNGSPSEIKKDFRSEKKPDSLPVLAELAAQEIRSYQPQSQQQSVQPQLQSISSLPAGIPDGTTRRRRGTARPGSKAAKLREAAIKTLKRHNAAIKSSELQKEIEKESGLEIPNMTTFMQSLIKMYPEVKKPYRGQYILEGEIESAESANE
Test: protein binding microarray;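 further: rank score from −0.5 (least bound) to 0.5 (best bound)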
Settings: Rok is a gene silencer of Bacillus subtilis; high values mean tight binding; most listed sequences are background and not binding sites; double strand, one strand shown

Sequence | binding signal [E-score]
AACCAAGC | 0.104
AATGAAAC | -0.0809
GAGGACAC | -0.116
ACTTTTTC | 0.146
GGGAGAGA | -0.149
CTGATTAA | 0.124
CGGTACCC | -0.286
ACCGAAGT | -0.00304
GTCTAGCA | -0.0242
ATGACGCG | -0.104
AAAACTTC | 0.0994
AAGCGCAG | -0.165
GGATGCCC | -0.367
CCGAACGG | -0.247
GTGCTGAA | -0.00688
TGATTCCA | 0.0823
GTCAAGAC | -0.0441
CAGCCTAA | -0.148
GTTTATTA | 0.168
AAGATCTG | 0.126
AGAGTAGC | 0.0708
GAGATGCC | -0.0956
CAGAGGCA | -0.108
AATTCCCC | -0.14
AATGAAGA | -0.0815

Sequence | binding signal [E-score]
GGAAAAAC | 0.0826
CTGCTTAA | -0.089
ACTTGACA | 0.18
CGACGGCG | -0.29
CTGAATTA | 0.134
ACGGACAT | -0.0802
AAGGAGCT | -0.0806
ATGAGCTG | -0.0991
AGGAGACT | -0.294
CTGCCCTC | -0.386
ATGTGTGG | 0.149
GTGATTGA | -0.0998
GATCTAGC | 0.208
CCCAGAGA | -0.159
GCCCAAGA | -0.318
CAGTCTCC | -0.205
AATGACTG | 0.0286
AATATGAT | 0.241
AAATGTCT | 0.0294
CAGTTCCC | -0.29
CAAGCCAA | -0.0857
GATAACGA | 0.135
CGCTAACC | -0.136
AGACCATG | -0.241
CTGAATTC | -0.0746

Sequence | binding signal [E-score]
CATCATCG | -0.11
ACTACTCC | 0.284
AATCTTGA | 0.137
GTCCCTAA | -0.0585
GGGAGGCA | -0.33
AGTTCTAC | 0.383
TCGCGCGA | 0.13
ATCTTGGA | 0.0863
GGGCGAGA | -0.174
GTTATGTA | 0.269
ACATGATA | 0.276
ATATACCA | 0.411
CGTTAACG | 0.062
AGCGACTG | 0.119
CCCGAGAG | -0.383
CCGGAGGC | -0.344
CGGATCAA | -0.127
TAGATCAA | 0.169
CTACCTAA | 0.22
CAAAGTGA | 0.0257
ACATATAG | 0.193
CGCAATGA | 0.0568
CGCGTCAA | -0.106
AGGACAGG | -0.183
AGCTTTAA | 0.181

Sequence | binding signal [E-score]
AGAGGCTA | -0.0665
AAGTCGCT | 0.015
TAGCTCGA | 0.134
GCATGAGA | 0.126
CAGAGGTC | -0.202
CGTGAGTA | 0.029
GTCACATA | 0.212
ACGTTCCG | -0.176
AAAGAATC | 0.0509
AGTCACGC | -0.166
ACTTGCTC | -0.202
CATCTCTA | 0.00699
TCAACCCA | -0.134
CCCGACAC | -0.263
GCGAGGTA | 0.063
AACTTAGC | 0.205
CGCGGTGA | -0.247
CCCGGTTC | -0.283
ACAATCCC | 0.147
CAGCCATC | -0.162
AGAACAAC | -0.0548
CCATTTAC | 0.0848
GTTCGTCA | -0.0591
AATCGCCT | -0.0616
ACATTGCT | 0.0806

Sequence | binding signal [E-score]
ATGCCCTC | -0.397
GGCGTGGA | -0.34
AAATGGAC | -0.143
GTTTTTAA | -0.00933
GAGCCTCA | -0.268
GTTGCTCA | 0.0357
CATTGCGA | 0.11
TACCTCCA | 0.145
GTAGCTCA | 0.0872
ACGAAGGG | -0.272
AGCATGTG | 0.0341
GCACCCAA | -0.267
AGCAATTG | 0.293
ATGTCACC | 0.171
AGATATGC | 0.177
CGTAGAAG | 0.128
AACCCGCG | -0.135
CATCCGAC | -0.168
AACCAGCG | 0.0565
GGTATTAA | 0.27
AACCCAAA | -0.0729
CTGCAATC | -0.145
CACACCGG | -0.295
CCTTCGGC | -0.238
ACGTGTCT | 0.0579

Sequence | binding signal [E-score]
GTAGGACA | -0.0926
GGACTACA | 0.136
ACGTTCTA | 0.188
CAGGTGGC | -0.305
GCACATGC | -0.0134
CCTCCCGC | -0.27
CAAGCCGA | -0.123
ACGCACAC | -0.0734
AGCTGCGG | -0.197
CACTTAAA | -0.125
AGGTTAAC | 0.0563
ACTTAGCC | 0.0219
GTGACTGA | -0.0854
TGAGCTCA | -0.278
AAGGCCCT | -0.337
CTGGATAA | -0.122
ATGACTCA | -0.102
ATGCGTGG | -0.191
AATAGGCA | -0.096
AGCGATCA | -0.032
GTTGGTCA | -0.114
ACAATATG | 0.139
CAATGGTA | 0.322
GAATTTAA | 0.0678
ATGAGAAA | 0.145

Sequence | binding signal [E-score]
AGAAGGTG | -0.155
GAGGAATA | -0.0643
ATGAAACG | -0.0665
GCTGAGAC | -0.14
GGTTGTAC | 0.114
ATATAACG | 0.277
GGCGGTAA | -0.0185
ATAGGGTG | 0.0336
ATAGCGGG | -0.229
GGATCCGA | -0.152
AGCGAACG | -0.178
ACGTCAAC | -0.0365
GCGACCAA | 0.0439
AACGCAGC | -0.0877
AATAAGAA | 0.209
AAGTGCAT | -0.0691
CATCCTAC | 0.177
CACAGCGG | 0.083
ATAGTAGA | 0.346
AAGCCGCA | -0.251
GACGGCCC | -0.234
GTATCAAA | 0.14
